Data: US20240190986A1 (ZHEJIANG NANOMAB TECHNOLOGY CENTER, published 2024)

Experiments:
[1] = target: T1, MSLN on SKOV3 and Aspc-1 tumor cells (UniProt Q13421 296-598); experiment: flow cytometry on Aspc-1 tumor cells, anti-human IgG PE secondary, fitted curve
T1 construct: whole, on cells; Endogenous mesothelin of tumor cell lines; also called SKOV3 tumor cell line; AsPC-1 tumor cell line

[2] = target: T2, segment III of MSLN expressed on HEK293T cells (UniProt Q13421 487-598, limits assumed); experiment: flow cytometry on HEK293T cells expressing MSLN segment III, anti-human IgG PE secondary, fitted curve
T2 construct: domain: segment III of MSLN; also called HEK293T MSLN-III cells; MSLN segment III protein overexpressing cell line

[3] = target: T1, MSLN on SKOV3 and Aspc-1 tumor cells; experiment: flow cytometry on SKOV3 tumor cells, anti-human IgG PE secondary, fitted curve
MSLN·His protein = target: T3, MSLN·His protein (human, UniProt Q13421 296-580, limits assumed); experiment: SPR (Biacore), antibody captured on protein A, MSLN·His as analyte
T3 construct: Bought protein; also called human MSLN·His antigen; not shown: His tag
Description: (1) Detection of affinity at protein level: the binding kinetics and affinity of heavy chain antibody to human MSLN·His antigen were determined using surface plasmon resonance (SPR). The purified antibody was flowed through the sensor chips pre-immobilized with protein A, and the antibody was captured by protein A. Then five different concentrations of MSLN·His protein were used as the mobile phase, and the binding time and dissociation time were 30 min and 60 min, respectively. Biacore Evaluation Software 2.0 (GE) was used to analyze the binding rate (kon, or ka), dissociation rate (koff, or kd) and equilibrium constant (KD). The rabbit antibody YP218, which binds to segment III of mesothelin, was selected as a positive control (Zhang et al., Sci Rep 2015, 21; 5:9928).

Sequence of MSLN·His protein (Q13421 other isoform, or with tags, fused parts or gaps limits assumed): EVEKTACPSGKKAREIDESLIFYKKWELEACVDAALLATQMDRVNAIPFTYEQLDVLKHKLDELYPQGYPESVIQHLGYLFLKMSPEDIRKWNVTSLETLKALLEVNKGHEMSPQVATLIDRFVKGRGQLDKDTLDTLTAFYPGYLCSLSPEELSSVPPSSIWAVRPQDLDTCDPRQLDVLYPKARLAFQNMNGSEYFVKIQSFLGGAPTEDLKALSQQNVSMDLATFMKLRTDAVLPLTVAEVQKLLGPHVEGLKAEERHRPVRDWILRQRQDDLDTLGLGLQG
T1 sequence (Q13421 other isoform, or with tags, fused parts or gaps limits assumed): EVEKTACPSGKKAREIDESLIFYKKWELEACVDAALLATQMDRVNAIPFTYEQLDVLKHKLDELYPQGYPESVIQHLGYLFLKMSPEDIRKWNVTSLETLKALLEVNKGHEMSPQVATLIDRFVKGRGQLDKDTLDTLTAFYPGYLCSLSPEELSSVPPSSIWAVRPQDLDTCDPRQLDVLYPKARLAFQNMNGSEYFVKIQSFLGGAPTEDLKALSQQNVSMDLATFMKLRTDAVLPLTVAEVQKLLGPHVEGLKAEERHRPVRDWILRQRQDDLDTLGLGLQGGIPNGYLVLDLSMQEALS

EC50 [1]: 5.16 nM | EC50 [2]: 5.21 nM | EC50 [3]: 1.33 nM | Kd (MSLN·His protein): 0.74 nM | koff (MSLN·His protein): 0.000505 s⁻¹ | kon (MSLN·His protein): 679000 M⁻¹ s⁻¹
B1: M118-IgG4 (antibody)
heavy: EVQLVESGGGLVQAGGSLTLSCAASEHTFTIDAMGYYRQIPGRRNERQLVAAAGRTGTTYYNDAVKDRFTIYRDTSKETIILQMNNLRPEDTTMYYCAVERYSDQSRFFGPGTQVTVSS[human IgG4 Fc with S228P (EU numbers) left out]
notes: also called M118 heavy chain antibody
